# Measured values: the supplement of paper PMC11417369
# The list shows a part of the results.
# Test system: PfAP2-HC AP2 domain (GST-tagged)
# Assay: gcPBM binding intensity (ln(normalized median fluorescence intensity)); higher = stronger DNA binding
# Procedure, shortened: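 For binding intensity, the highest Masliner-normalised natural-log median intensity across replicate spots of either probe orientation was taken. Protein bound to the array was stained with Alexa488 anti-GST antibody and scanned at 488 nm. The protein, GST-tagged P. falciparum DNA-binding domains from E. coli at about 25 μg on average, had been applied for 1 h to an Agilent 4 × 180k array of primer-extended double-stranded 36-bp intergenic genomic probes and negative controls.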
row,Sequence,gcPBM binding intensity (ln)
1,TATACAAGTATATAGGTGCATATATAAGTATATATT [GTGCAC_site9994],9.69
2,TACTTTCAAAAGATCACACATATATATATATATATA [CACACA_site5630],9.67
3,TAATAACATACAGACACACACGTAAAAGCACGTGTA [CACACA_site4299],10.2
4,TAATATATATATATATGTACATATATATTATGTATA [XGTACX_site4690],9.54
5,AGATTATTTAGAATGTGTACATATTACACATACATG [XGTACX_site8634],9.65
6,ACTACATTATGTCATACATGCATACATACGTGGTTT [TGCATGCA_site732],9.81
7,AGTAATTTAAGGAATACACACAAGAAAAAAATAAGA [CACACA_site6177],10.1
8,CATTAAAAGTATAATTGTACTTTTCATTTATATATT [XGTACX_site7536],9.63
9,GTATACCTTTTGACATGTACGTATGTATATTTGGGT [XGTACX_site720],9.78
10,TTTTTAACCAAACATCAAAACATATTTTTTTGTTAT [CACACA_negctrl_site385],9.48
11,CATACATACAAACACACACACACACCCATATATATA [CACACA_site2918],11.1
12,AATATTTTCTTGTACGCATGCACATCCAAATTATAT [TGCATGCA_site873],9.89
13,TGACCTGTTCAGGTAACACACATATAAACACATACA [CACACA_site4186],9.91
14,ATATATTAATAATTTTGTACGCATTTCCTTTTTATT [XGTACX_site1638],9.68
15,GAAAATATTTCCGTATGTACTTATTTTAGTCTACTA [XGTACX_site471],9.74
16,AAAAAAAAAAAAAAATGTACAAATAAAGAAATATGA [XGTACX_site4371],9.58
17,ATACCCACTTAAAATACACACACACCGAAAAAAAAA [CACACA_site8867],10.2
18,AGGTTCTTTTTAAATGGTACACATAATTTGAAGATA [XGTACX_site400],9.26
19,GTGTATAGAATGGTTTCTTTTAAGGTTTTTATTTTT [CACACA_negctrl_site564],9.84

row,Sequence,gcPBM binding intensity (ln)
1,TCTTAAAAGGGGAATGGAATGGAGAAAATGAAATAA [GTGCAC_negctrl_site30],9.43
2,ATGAATACAAAATTATACAAAATTATCAAAAGTATG [CACACA_negctrl_site1453],9.77
3,CTTTTTATTTAGAACACACACAAAAAAAAAAAAAAA [CACACA_site1761],9.41
4,TGCAGTCTGGAGAAACGTACATAGTATCTGGTAGCT [XGTACX_site4937],9.56
5,ATACATAAATATATATGTACATATATATATATATAT [XGTACX_site1055],9.75
6,AAAATATATTTAAATTGTACACGTTACCATAACAAT [XGTACX_site2598],9.66
7,TTTTTTAAATGTATTAAAATTATATATATATATATA [GTGCAC_negctrl_site570],9.34
8,ATACATAAATTTAGAAGTACATAACAAATTTTTAAA [XGTACX_site7448],9.68
9,AATCAAAACAACAATAGTACATAAAAAAACAAAACA [XGTACX_site4181],9.9
10,ATTAAATGTTATATTTGTACATATTATATATATATA [XGTACX_site5095],9.68
11,TCCATATTTGTTCACACACACACATATTTATATATA [CACACA_site3570],10.9
12,TTTGTTATTTTTTATTGTACTTTTTTTCTTTCATAA [XGTACX_site4302],9.8
13,TTCATTTTTTATTATAGTACACATAATATTTGCAGA [XGTACX_site4032],9.59
14,TATATATATATGTGCGTGCACGTTACCTTGCTGTTT,9.85
15,TTTCCAAATACAACTACACACAAACAAAAGTTATAT [CACACA_site6544],10.2
16,AAATTTAACAACTTCAAACACACAATATATATATAT [CACACA_site2092],9.82
17,TCCTATATATAAATATTAATATATATGTATTGGTAT [GTGCAC_negctrl_site23],9.61
18,TATAATAATAATTATACATGCATGAATATTTATATG [TGCATGCA_site811],9.55
19,AAAAAAAAAAAAAACACACACACAAATACAAATGGT [CACACA_site1721],10.5

row,Sequence,gcPBM binding intensity (ln)
1,TTTCTTATTTTGGATTGTACGTATATTTTTCATTTT [XGTACX_site224],10
2,TTACACATGAGAAAATGTACATATAATAAAATATGT [XGTACX_site904],9.68
3,TTATATTTCAATCATATTGTCACAAGTCATATTTAT [GTGCAC_negctrl_site366],9.56
4,ATGGACAAGTTAAACGCACACAAATATATACACCCA [CACACA_site8478],10.6
5,AATAAAAAAAATAGCATACACACATATATACATATA [CACACA_site659],10.2
6,AACAAAAAAAAAAAAAAAAAAAAAAAAAAAAAAATG [CACACA_negctrl_site1127],9.24
7,ATGTTCTTATTATTGGTGCAAGAATACACAAGAAAA,9.64
8,TATTGTTCTTATTTAGTGCATATATAATATAATATA [GTGCAC_site9827],9.43
9,AACACATAATAAAATTGTACCCAACATTTCTTTTGA [XGTACX_site8061],9.76
10,TATGTGAATAAATAAGCACACATAAACACATATATA [CACACA_site9359],10
11,TTTTGAAGCTTTAAAACATATATATATATATATATA [CACACA_negctrl_site184],9.63
12,AGCAAAACAAAAAAATTAAAATTAACATATAATCAT [GTGCAC_negctrl_site393],9.62
13,AATAAGAGGATACATTGTACATAAAAAAAAAAAATA [XGTACX_site1815],9.61
14,TATATAAACACGTACACACACATATCTGTATTTATA [CACACA_site5858],10.4
15,AATACCTACCAAACATGTACATACGCTTCTCAAATA [XGTACX_site5535],9.67
16,GTGAGCTCAGACTACACACACAAAGAAAAAAATAAA [CACACA_site1553],9.98
17,AACAAATACAGACACACACACACACCCAAAAAAAAA [CACACA_site515],10.9
18,ATACAACAAAAATAAGCACACACAAATATACATACA [CACACA_site9201],10.8
